# Measured values reported in PubChem BioAssay AID894 (National Center for Advancing Translational Sciences (NCATS), 2007).
# The campaign covered roughly 150,000 compounds. About 6,500 (4.3%) were called active. Inconclusive results, whose numbers are uncertain, are shown with a selection of clear calls. The call rests on the fitted dose curve; in most records, active means well fitted inhibition curve with a large enough effect (not every such curve was filed as active); inconclusive means small, poorly fitted or top-dose-only effect, or another doubt; inactive means no such curve, though single readings can be large or run the other way. Potencies of inconclusive entries are left out as doubtful fits.
# Target: 15-hydroxyprostaglandin dehydrogenase [NAD(+)] (Homo sapiens) (UniProt P15428)
# UniProt P15428, sequence (P15428 whole entry, looked up): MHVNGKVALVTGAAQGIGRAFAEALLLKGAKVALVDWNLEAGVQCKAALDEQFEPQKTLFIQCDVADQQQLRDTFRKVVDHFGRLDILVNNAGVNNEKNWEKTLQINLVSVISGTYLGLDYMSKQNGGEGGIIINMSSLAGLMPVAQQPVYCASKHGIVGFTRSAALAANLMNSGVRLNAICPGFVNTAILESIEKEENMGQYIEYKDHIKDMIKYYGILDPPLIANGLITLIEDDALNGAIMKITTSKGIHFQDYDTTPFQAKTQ
# Assay: qHTS Assay for Inhibitors of HPGD (15-Hydroxyprostaglandin Dehydrogenase)
# Conditions: purified HPGD, NADH fluorescence kinetic, PGE2 substrate; activity change, negative = inhibition: stronger effect = lower value
# Summary of the method: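 20 nM HPGD preincubated 15 min at room temperature with compound in 50 mM Tris-HCl pH 8, 0.01% Tween 20. Started with 1 mM NAD+ and 30 uM prostaglandin E2; NADH fluorescence (360/450 nm) read 5 times over 30-s intervals, last minus first.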
# On the % scale 0 is the no-effect control and ±100 the full control effect; potency means the concentration at half of the fitted maximal effect; tags describe the fitted curve by direction and shape.
Compound,Potency,"activity change, negative = inhibition"
Cc1cc(NC(=O)CCCSc2nc(-c3ccco3)cc(C(F)(F)F)n2)n(-c2ccccc2)n1,"inconclusive [inhibitor, partial curve]",–
CCOC(=O)c1c(C)oc2c(CC(=O)c3ccccc3)c(Cl)c(O)c(O)c12,active: 7.08 µM,–
Cc1cnc(NC(=O)c2ccc3c(c2)C(=O)N(Cc2ccco2)C3=O)s1,–,inactive: -8.14%
CNc1cccccc1=S,active: 28.2 µM,–
N#Cc1cc2cc3c(cc2nc1N1CCCCC1)OCCO3,"inconclusive [inhibitor, single point]",–
Cc1nc(C)c(CCNC(=O)c2ccccc2Br)s1,–,inactive: -29.9%
CN(C)C=Nc1c(C(=O)c2ccccc2)sc2nccc(N(C)C)c12,–,inactive: -15.5%
CCn1c(CSc2nc(C)cc(C)n2)nnc1SCC(=O)N1CCCc2ccccc21,–,inactive: -15.5%
Cn1nc(-c2ccc(C(=O)N3CCN(Cc4ccccc4)CC3)cc2)c2ccccc2c1=O,active: 15.8 µM,–
O=C(c1cc2n(n1)C(C(F)(F)F)CC(c1ccco1)N2)N1CCc2ccccc2C1 (stereo not drawn),"inconclusive [inhibitor, partial curve]",–
CCN(CC)S(=O)(=O)c1cc(C(=O)Nc2ccncc2)ccc1Cl,–,inactive: -11.2%
Cc1cc2oc(=O)cc(CN3CCN(S(=O)(=O)c4ccc5c(c4)OCCO5)CC3)c2cc1C,"inconclusive [inhibitor, partial curve]",–
c1coc(C2Nc3cccc4cccc(c34)N2)c1,"inconclusive [inhibitor, single point]",–
Cc1c(C)c2cc(Cl)c(O)c(CN3CCCCC3)c2oc1=O,"inconclusive [inhibitor, partial curve]",–
NC(=O)/N=N/C(N)=O,active: 10 µM,–
CC(=O)Nc1nonc1-c1nc2ccccc2n1Cc1nnc(C)o1,"inconclusive [inhibitor, single point]",–
O=C1c2ccccc2C(=O)N1CC1CCCO1 (stereo not drawn),–,inactive: -4.43%
CCOC(=O)C1CCCN(C(=O)Cn2sc3nc(C)cc(C)c3c2=O)C1 (stereo not drawn),"inconclusive [inhibitor, partial curve]",–
COc1ccc(/C=N/NC(=O)c2[nH]nc3c2CCc2ccccc2-3)cc1OC,"inconclusive [inhibitor, single point]",–
CC(C(=O)NC1CCCc2ccccc21)N1CCN(Cc2ccc3c(c2)OCO3)CC1 (stereo not drawn),–,inactive: -19.6%
C=CC[C@@](C(C)=O)(C(=O)OC)C(NC(=O)OC(C)(C)C)c1ccccc1 (stereo partly drawn),–,inactive: -3.96%
O=c1/c(=C\c2ccc(O)cc2)sc2n1C(c1ccccc1)C(c1ccccc1)=NN=2 (stereo not drawn),active: 15.8 µM,–
COc1ccc(-c2nsc3c(SCc4ccccc4)ncnc23)cc1,"inconclusive [inhibitor, full curve]",–
Cc1ccc(-c2cc(C(=O)Nc3ccccc3C)c3ccccc3n2)o1,"inconclusive [inhibitor, partial curve]",–
O=c1[nH]n2c(=O)c3c([nH]c2c1N=Nc1cccc(Cl)c1)CCCC3,active: 15.8 µM,–

Compound,Potency,"activity change, negative = inhibition"
COc1ccc(C(=O)CSc2nnc(-c3cc4ccccc4cc3O)n2Cc2ccco2)cc1,–,inactive: -29.8%
COc1ccc(C2C3=C(CCCC3=O)Nc3nc(-c4cc(OC)c(OC)c(OC)c4)nn32)cc1OC (stereo not drawn),"inconclusive [inhibitor, partial curve, poor fit]",–
N=C1C(c2nc3ccccc3s2)=C(O)CN1Cc1ccccc1,"inconclusive [inhibitor, partial curve]",–
Nc1nc2n(n1)C(c1ccc(Cl)cc1)CC(c1ccc(F)cc1)N2 (stereo not drawn),–,inactive: -6.67%
O=C(CCN1C(=O)C2C3C=CC(C3)C2C1=O)N1CCN(c2ccccc2Cl)CC1 (stereo not drawn),–,inactive: -6.67%
Cc1c(C(=O)N/N=C/c2cccs2)nc2ccccn12,"inconclusive [inhibitor, partial curve]",–
c1ccc2c(c1)nc(NCC1CCCO1)c1nnnn12 (stereo not drawn),"inconclusive [inhibitor, single point]",–
CC1=C(C(=O)OCC2CCCO2)C(c2ccncc2)C2=C(CCCC2=O)N1 (stereo not drawn),"inconclusive [inhibitor, partial curve]",–
COc1ccc([N+](=O)[O-])cc1NC(=S)Nc1ccccc1,–,inactive: -28.5%
Cc1c(C(=O)NN2CCN(C)CC2)cccc1[N+](=O)[O-],–,inactive: -3.9%
N/C(=N\OC(=O)COc1ccc(Br)cc1Cl)c1cccnc1,"inconclusive [inhibitor, partial curve]",–
CCCCNC(=O)c1cc2c(=O)n3cccc(C)c3nc2n(Cc2ccncc2)c1=N,"inconclusive [inhibitor, partial curve]",–
Cc1ccc(C(=O)c2cc3ccccc3o2)cc1,"inconclusive [inhibitor, partial curve]",–
CCCSc1nnc(CSc2nc3nc(C)cc(C)n3n2)o1,–,inactive: -12.1%
COC(=O)C1C2C=CC(C3CC23)C1C(=O)OCC(=O)c1ccc(OC)cc1 (stereo not drawn),active: 28.2 µM,–
COc1cc(SC)ccc1C(=O)NCCOc1ccc(Cl)cc1,"inconclusive [inhibitor, partial curve]",–
Nc1sc2c(c1C(=O)c1ccccc1)CCCC2,"inconclusive [inhibitor, partial curve]",–
Nc1nc2sc3c(c2cc1C(=O)N1CCOCC1)CCCC3,"inconclusive [inhibitor, single point]",–
Cc1ccc(-c2nc(C#N)c(NCCN3CCCCC3)o2)cc1,"inconclusive [inhibitor, partial curve]",–
Cc1c(Cl)cccc1NC(=S)NCc1cccn1C,–,inactive: -8.48%
CCOc1ccc(N2C(=O)CC(N3CCC(NC(=O)Nc4ccccc4)CC3)C2=O)cc1 (stereo not drawn),"inconclusive [inhibitor, single point]",–
COc1ccc2c(c1)O[C@@H](c1ccc3c(c1)OCO3)[C@H](OC(=O)N[C@H]1CCCc3ccccc31)C2=O,–,inactive: 3.99%
O=C(NC1CCCC1)C1CCC(CNS(=O)(=O)c2cccs2)CC1 (stereo not drawn),active: 22.4 µM,–
C/C(N)=C(/C#N)C(=O)COC(=O)c1ccc(C)c(S(=O)(=O)N2CCCCC2)c1,active: 12.6 µM,–
N#Cc1cccc(NC(=O)N2CC[C@@]3(CCCN(C(=O)c4csnn4)C3)C2)c1,–,inactive: -11.2%

Compound,Potency,"activity change, negative = inhibition"
COc1ccc(CN(C(=S)Nc2ccccc2)C2CC(=O)N(c3ccccc3)C2=O)cc1 (stereo not drawn),–,inactive: -8.24%
O=C(NCC1CCCO1)c1cccc(F)c1 (stereo not drawn),active: 22.4 µM,–
Oc1ccc2c(c1)OCC1(O)Cc3cc(O)c(O)cc3C21 (stereo not drawn),"inconclusive [inhibitor, full curve]",–
COc1ccc(-c2cc(C(F)(F)F)nc(-n3cc(Br)cn3)n2)cc1,"inconclusive [inhibitor, partial curve]",–
O=C(c1cc(-c2ccc(O)cc2)on1)N1CCc2ccccc2C1,active: 12.6 µM,–
COC(=O)C1=CNC=C(C(=O)OC)C1c1ccc(C(=O)OC)cc1,"inconclusive [inhibitor, partial curve]",–
Fc1ccc2c(Cl)c(-c3nnc(-c4cccs4)o3)sc2c1,"inconclusive [inhibitor, partial curve]",–
Cc1ccc(-c2nn3c(C)nnc3c3ccccc23)cc1S(=O)(=O)N1CCN(CCO)CC1,"inconclusive [inhibitor, partial curve]",–
Cc1nc(NC(=O)CC(C)C)sc1-c1csc(Nc2ccc(Cl)cc2)n1,"inconclusive [inhibitor, partial curve]",–
Cc1ccc(Cl)cc1NC(=O)COC(=O)c1ccc(COc2ccc3c(C)cc(=O)oc3c2)cc1,"inconclusive [inhibitor, single point]",–
CC(=O)C1=C(C)NC(SCC(=O)c2ccc(Cl)cc2Cl)=C(C#N)C1c1ccco1 (stereo not drawn),"inconclusive [inhibitor, partial curve]",–
COc1ccc(NC(=O)c2ccccc2[N+](=O)[O-])cc1,–,inactive: -9.76%
Cc1c(/C=C/C(=O)c2ccc(O)cc2)cnn1C,"inconclusive [inhibitor, partial curve]",–
Cc1ccc(C(=O)NC(C)c2ccccc2)o1 (stereo not drawn),active: 22.4 µM,–
Cc1ccc(/C=C/C(=O)N2CCN(S(=O)(=O)c3c(C)c(C)cc(C)c3C)CC2)o1,active: 25.1 µM,–
CCC1(CC)Cc2ccccc2C(Nc2c(C)n(C)n(-c3ccccc3)c2=O)=N1,–,inactive: -9.92%
COc1cc(C(=O)NCc2ccc(-c3nc4ccccc4o3)cc2)cc(OC)c1OC,"inconclusive [inhibitor, partial curve]",–
O=C(CO/N=C/c1ccc(OC(F)F)cc1)NCc1cccs1,"inconclusive [inhibitor, partial curve]",–
Cc1ccccc1NN=Nc1nc2c([nH]1)c(=O)n(C)c(=O)n2C,"inconclusive [inhibitor, single point]",–
O=C(C1CCCN(Cc2cccc(F)c2)C1)N1CCCCC1 (stereo not drawn),"inconclusive [inhibitor, single point]",–
COC(=O)c1sccc1NC(=S)N1CCN(c2ccccc2)CC1,–,inactive: -4.77%
COC(=O)c1sccc1NC(=O)c1ccc(OC)cc1,"inconclusive [inhibitor, partial curve]",–
CC1Cc2ccccc2N1C(=O)COC(=O)Cn1nnc(-c2ccccc2)n1 (stereo not drawn),–,inactive: -24.1%
